The record followed here is PMC4336329 (PLoS ONE, 2015).

The campaign covered roughly 310,000 compounds. About 2,200 (0.71%) showed an effect of 50% or more. The effect is printed as a negative number. This is one part of the list.

For the assay, the target named is human ether-à-go-go-related gene (hERG) potassium channel (human, UniProt Q12809). The assay can be described thus: primary screen, population patch clamp on CHO cells stably expressing hERG.
Sequence of human ether-à-go-go-related gene (hERG) potassium channel (Q12809 whole entry, looked up): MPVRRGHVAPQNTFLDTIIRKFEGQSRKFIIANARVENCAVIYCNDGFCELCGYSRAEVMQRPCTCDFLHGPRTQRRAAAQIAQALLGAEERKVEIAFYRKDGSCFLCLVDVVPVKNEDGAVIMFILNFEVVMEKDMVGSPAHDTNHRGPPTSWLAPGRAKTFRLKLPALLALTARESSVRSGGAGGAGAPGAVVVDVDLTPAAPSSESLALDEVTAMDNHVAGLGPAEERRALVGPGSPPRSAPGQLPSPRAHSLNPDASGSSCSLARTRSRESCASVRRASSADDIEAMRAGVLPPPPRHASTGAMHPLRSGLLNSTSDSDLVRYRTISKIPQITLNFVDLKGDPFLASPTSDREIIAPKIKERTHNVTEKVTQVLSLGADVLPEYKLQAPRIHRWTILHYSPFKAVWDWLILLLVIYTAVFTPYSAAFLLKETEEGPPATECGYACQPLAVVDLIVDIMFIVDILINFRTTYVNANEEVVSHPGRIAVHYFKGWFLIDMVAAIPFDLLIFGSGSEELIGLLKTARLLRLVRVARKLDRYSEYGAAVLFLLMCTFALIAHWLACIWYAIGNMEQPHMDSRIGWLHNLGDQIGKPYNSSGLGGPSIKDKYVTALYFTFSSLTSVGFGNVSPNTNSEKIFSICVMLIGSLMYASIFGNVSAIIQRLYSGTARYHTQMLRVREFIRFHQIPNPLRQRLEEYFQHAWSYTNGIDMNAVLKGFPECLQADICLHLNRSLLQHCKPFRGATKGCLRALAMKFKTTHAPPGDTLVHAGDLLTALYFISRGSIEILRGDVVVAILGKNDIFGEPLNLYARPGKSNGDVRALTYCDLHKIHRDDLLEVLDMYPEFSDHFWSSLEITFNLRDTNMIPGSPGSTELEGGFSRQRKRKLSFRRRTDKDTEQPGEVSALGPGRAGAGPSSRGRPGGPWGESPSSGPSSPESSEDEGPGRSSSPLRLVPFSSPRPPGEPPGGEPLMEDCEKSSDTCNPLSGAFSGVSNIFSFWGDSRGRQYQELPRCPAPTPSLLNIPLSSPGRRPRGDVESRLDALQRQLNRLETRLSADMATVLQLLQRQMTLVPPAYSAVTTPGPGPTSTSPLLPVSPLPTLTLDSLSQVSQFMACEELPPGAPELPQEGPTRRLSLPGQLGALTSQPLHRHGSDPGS
For `O=C(O)c1nc(N2CCCCC2)ncc1Cl`, the “hERG current change (%, negative = inhibition) at 1uM” value stood at 9.09%. In the case of `COc1ccc(-c2n[nH]c(C)c2-c2ccc(Cl)cc2)c(O)c1`, the “hERG current change (%, negative = inhibition) at 1uM” value is 10.2%. On to `CC(=O)Oc1ccc(-c2nc(-c3cccnc3)no2)cc1`, for which the “hERG current change (%, negative = inhibition) at 1uM” value is given as 10.2%. As for `COc1cc(NC(=O)c2cc3nc(C4CC4)cc(C(F)(F)F)n3n2)c(OC)cc1Cl`, the “hERG current change (%, negative = inhibition) at 1uM” value is -2.75%.

Take `CCCCn1nnnc1NCc1cccc(OC)c1OC`: the “hERG current change (%, negative = inhibition) at 1uM” value worked out at 2.57%. For `O=C(NCCC1=CCCCC1)C1CCN(C(=O)Cc2ccccc2)CC1`, the “hERG current change (%, negative = inhibition) at 1uM” value is given as 8.44%. For the molecule `Cc1ccc(C)c(S(=O)(=O)N2CCN(C(=O)c3cc(-c4cccs4)nn3-c3ccccc3)CC2)c1`, the “hERG current change (%, negative = inhibition) at 1uM” value is recorded as 10.4%. Turning to `C=CCCCOc1ccc(C(=O)O)cc1`, the “hERG current change (%, negative = inhibition) at 1uM” value worked out at 12.7%. With `COc1ccc(Nc2nc(N)nc(CSc3nncn3C)n2)cc1`, the “hERG current change (%, negative = inhibition) at 1uM” value stood at 13%.

With `COc1ccc(OC)c(/C=N/NC(=O)c2cc3c(OC)cccc3[nH]2)c1`, the “hERG current change (%, negative = inhibition) at 1uM” value was 7.35%.

Take `COC(=O)Cc1cc(=O)n2c(nc3ccccc32)[nH]1`: the “hERG current change (%, negative = inhibition) at 1uM” value is on record as 12.9%. Turning to `Cc1ccc(S(=O)(=O)Oc2ccc(/C=C(/NC(=O)c3ccccc3)C(=O)NC(C)C(=O)O)cc2)cc1` (centres unmarked), the “hERG current change (%, negative = inhibition) at 1uM” value worked out at 15.1%. For the molecule `O=C(Nc1ccccc1)N1CCN(Cc2ccc(Cl)cc2)CC1`, the “hERG current change (%, negative = inhibition) at 1uM” value is given as -9.14%. The figure for `Cc1ccc(S(=O)(=O)N2CCCC2)cc1C(=O)Nc1ccc(-n2cnnn2)cc1` is 5.21%. For `CCCCNc1c([N+](=O)[O-])cc(C(=O)O)cc1[N+](=O)[O-]` the value was 3.44%; for `O=C(Nc1cccnc1)c1sc2cccc(F)c2c1Cl`, 11.4%. In the case of `COCCNC(=S)N1CCC(C(=O)c2ccc(C)cc2)CC1`, the “hERG current change (%, negative = inhibition) at 1uM” value was determined as 7.47%. For `Cc1ccc(C(NC(=O)N2CCOCC2)C(Cl)Cl)cc1F` (centres unmarked) the value was 5.52%; for `COc1ccc(C(CC(=O)O)NC(=O)C2CCCCC2)cc1` (centres unmarked), 4.29%. Turning to `COc1ccc(NC(=O)CSc2n[nH]c(N)n2)c([N+](=O)[O-])c1`, the “hERG current change (%, negative = inhibition) at 1uM” value is recorded as 22.8%. The figure for `COc1ccc(NS(=O)(=O)c2ccc3oc(Nc4ccc5c(c4)OCCO5)nc3c2)cc1` is -3.36%. `Cc1ccc2nc(-c3ccc(NC(=O)C(C)Sc4nncs4)cc3)sc2c1` (centres unmarked): the “hERG current change (%, negative = inhibition) at 1uM” value worked out at 13.2%. In the case of `NS(=O)(=O)c1ccc(NC(=O)c2cc(Cl)ccc2Cl)cc1`, the “hERG current change (%, negative = inhibition) at 1uM” value came to 7.88%. For the molecule `S=C(c1ccc(Br)cc1)N1CCN(Cc2ccccc2)CC1`, the “hERG current change (%, negative = inhibition) at 1uM” value is reported as -3.15%. Turning to `Cc1ccc(C)c(-n2c(-c3ccncc3)n[nH]c2=S)c1`, the “hERG current change (%, negative = inhibition) at 1uM” value was 14.3%.

For the molecule `COC(C[C@@H](O)C[C@@H](O)[C@H](C)OCc1ccccc1)OC`, the “hERG current change (%, negative = inhibition) at 1uM” value was determined as 23.8%. For `CCCCn1nc(NC(=O)CC)c2cc3cc(OC)ccc3nc21` the value was 8.22%.

As to `O=C(CC1SC(=O)N(c2ccccc2)C1=O)Nc1ccccc1` (centres unmarked), the “hERG current change (%, negative = inhibition) at 1uM” value came to 14.5%.

As to `CCn1c2ccccc2c2cc(/C=N/NC(=O)c3cc(O)cc(O)c3)ccc21`, the “hERG current change (%, negative = inhibition) at 1uM” value is given as 9.35%. As for `CC(NC(=O)CCCCCNC(=O)N1CCn2c1nc1ccccc12)c1ccccc1` (centres unmarked), the “hERG current change (%, negative = inhibition) at 1uM” value is 3.61%. For `Cc1cc(OCC(=O)NC(Cc2c[nH]c3ccc(O)cc23)C(=O)O)c2c(C)c(C)c(=O)oc2c1` (centres unmarked) the value was 14.5%; for `CCc1nnc(N2C(=O)c3cccc4cccc(c34)C2=O)s1`, 3.78%; for `Cn1c2ccccc2c2cc(/C=N/NC(=O)c3ccccc3F)ccc21`, 10.6%.

For `COc1ccc(-c2cc(=O)[nH]c3ccccc23)cc1`, the “hERG current change (%, negative = inhibition) at 1uM” value came to 12.5%. Regarding `CCOc1ccc(NS(=O)(=O)c2c(C)nc3sc(CC)nn3c2=O)cc1`, the “hERG current change (%, negative = inhibition) at 1uM” value amounted to 6.31%.

For `CCCCNC(=O)/C(C#N)=C/c1ccc2c(c1)OCCO2`, the “hERG current change (%, negative = inhibition) at 1uM” value is reported as 8.66%.

As for `O=c1oc2ccccc2c(Nc2cccc(O)c2)c1[N+](=O)[O-]`, the “hERG current change (%, negative = inhibition) at 1uM” value stood at 17.8%. The figure for `CC(NC(=O)C1CCC(CNS(=O)(=O)c2ccc3c(c2)C(C)(C)C(=O)N3C)CC1)c1ccccc1` (centres unmarked) is 9.8%. Turning to `CC(=O)O.O=S(=O)(Cc1ccccc1)N1CCNCC1`, the “hERG current change (%, negative = inhibition) at 1uM” value is 12.5%. The figure for `COc1cccc(CN(Cc2ccco2)C(c2ccc(F)cc2)c2nnnn2C(C)(C)C)c1` (centres unmarked) is 5.09%; for `Cc1cc(=O)n2cccc(O)c2n1.Cl` it is 16.3%. Consider `Nc1c(C(=O)NCCN2CCOCC2)c2nc3ccccc3nc2n1-c1ccccc1`, for which the “hERG current change (%, negative = inhibition) at 1uM” value is -3.09%.

Consider `CNC(=S)N(CCc1ccc(S(N)(=O)=O)cc1)C1CC(=O)N(c2ccccc2F)C1=O` (centres unmarked), for which the “hERG current change (%, negative = inhibition) at 1uM” value is listed as 4.26%. Regarding `O=C(/C=C/c1ccc(S(=O)(=O)N2CCOCC2)cc1)NCc1ccccc1Cl`, the “hERG current change (%, negative = inhibition) at 1uM” value turned out to be 5.91%.
